Measured values: US7592316B2, “Peptides as NS3-serine protease inhibitors of hepatitis C virus” (Schering Corporation, priority 2000, dated 2009)

molecular target: HCV NS3/NS4A protease (strain 1a) (Hepatitis C virus genotype 1a, UniProt P27958); assay: biochemical; conditions: Table 5; HCV NS3/NS4A protease, spectrophotometric assay, 30° C., pH 6.5; read-out: Ki* Range

With `CN(C)C(=O)[C@@H](NC(=O)CNC(=O)C(=O)CNC(=O)[C@@H]1[C@@H]2[C@H](CN1C(=O)[C@@H](NC(=O)OC(C)(C)C)C(C)(C)C)C2(C)C)c1ccccc1` (Boc-[Tle][Pro(3R,4S-CMe2)][X35]G[Phg]-NMe2) as the molecule, how does the Ki read?
Its Ki is > 1000 nM.

`CCCCC(NC(=O)[C@@H]1[C@H]2[C@@H](CN1C(=O)[C@@H](NC(=O)OC(C)(C)C)C(C)(C)C)C2(C)C)C(=O)C(=O)NCC(=O)N[C@H](C(=O)N(C)C)c1ccsc1` (stereo partly drawn) (Boc-[Tle][Pro(3S,4R-CMe2)][X4]G[Gly(3-thienyl)]-NMe2) was tested. Which Ki did it give?
The Ki was 1 to 100 nM.

`CCCCC(NC(=O)[C@@H]1[C@H]2[C@@H](CN1C(=O)[C@@H](NC(=O)OC(C)(C)C)C(C)(C)C)C2(C)C)C(=O)C(=O)NCC(=O)N[C@H](C(=O)N(C)C)C1Cc2ccccc2C1` (stereo partly drawn) (Boc-[Tle][Pro(3S,4R-CMe2)][X4]G[Igl]-NMe2) was tested. Which Ki did it give?
The Ki was 101 to 1000 nM.

Which Ki does the source give for `CN(C)C(=O)[C@@H](NC(=O)CNC(=O)C(=O)C(CC1CCC1)NC(=O)[C@@H]1[C@H]2[C@@H](CN1C(=O)[C@@H](NC(=O)OC(C)(C)C)C(C)(C)C)C2(C)C)c1ccccc1` (stereo partly drawn) (Boc-[Tle][Pro(3S,4R-CMe2)][X32]G[Phg]-NMe2) here?
The Ki was 1 to 100 nM.

same assay, conditions: Table 6; HCV NS3/NS4A protease, 30° C., pH 6.5; read-out: Ki*

For `CN(C)C(=O)[C@@H](NC(=O)CNC(=O)C(=O)C(CCC(F)F)NC(=O)[C@@H]1[C@@H]2[C@H](CN1C(=O)[C@@H](NC(=O)OC(C)(C)C)C1CCCCC1)C2(C)C)c1ccccc1` (stereo partly drawn) (Boc-[Chg][Pro(3R,4S-CMe2)][X81]G[Phg]-NMe2), which Ki is on record?
The Ki was 1 to 100 nM.

With `CN(C)C(=O)[C@@H](NC(=O)CNC(=O)C(=O)C(CC1COC1)NC(=O)[C@@H]1[C@@H]2[C@H](CN1C(=O)[C@@H](NC(=O)OC(C)(C)C)C1CCCCC1)C2(C)C)c1ccccc1` (stereo partly drawn) (Boc-[Chg][Pro(3R,4S-CMe2)][X84]G[Phg]-NMe2) as the molecule, how does the Ki read?
The Ki was 1 to 100 nM.

Which Ki does the source give for `CCC(F)(F)CC(NC(=O)[C@@H]1[C@@H]2[C@H](CN1C(=O)[C@@H](NC(=O)OC(C)(C)C)C1CCCCC1)C2(C)C)C(=O)C(=O)NCC(=O)N[C@H](C(=O)N(C)C)c1ccccc1` (stereo partly drawn) (Boc-[Chg][Pro(3R,4S-CMe2)][X96]G[Phg]-NMe2) here?
The Ki was 1 to 100 nM.

With `CN(C)C(=O)[C@@H](NC(=O)CNC(=O)C(=O)C(CC1CC1)NC(=O)[C@@H]1[C@H]2CCC[C@H]2CN1C(=O)[C@@H](NC(=O)OC(C)(C)C)C1CCCCC1)c1ccccc1` (stereo partly drawn) (Boc-[Chg][Pro(3S,4R-(CH2)3)][X8]G[Phg]-NMe2) as the molecule, how does the Ki read?
Its Ki is 1 to 100 nM.

With `CN(C)C(=O)[C@@H](NC(=O)CNC(=O)C(=O)C(CC1CCC1)NC(=O)[C@@H]1[C@H]2CCC[C@H]2CN1C(=O)[C@@H](NC(=O)OC(C)(C)C)C1CCCCC1)c1ccccc1` (stereo partly drawn) (Boc-[Chg][Pro(3S,4R-(CH2)3)][X32]G[Phg]-NMe2) as the molecule, how does the Ki read?
The Ki was 1 to 100 nM.

How did the Ki turn out when `CN(C)C(=O)[C@@H](NC(=O)CNC(=O)C(=O)C(CCC(F)F)NC(=O)[C@@H]1[C@H]2CCC[C@H]2CN1C(=O)[C@@H](NC(=O)OC(C)(C)C)C1CCCCC1)c1ccccc1` (stereo partly drawn) (Boc-[Chg][Pro(3S,4R-(CH2)3)][X81]G[Phg]-NMe2) was run?
Its Ki is 1 to 100 nM.

How did the Ki turn out when `CN(C)C(=O)[C@@H](NC(=O)CNC(=O)C(=O)C(CC1CCC1)NC(=O)[C@@H]1[C@@H]2[C@H](CN1C(=O)[C@@H](NC(=O)OC(C)(C)C)C1CCCCC1)C2(Cl)Cl)c1ccccc1` (stereo partly drawn) (Boc-[Chg][Pro(3S,4R-CCl2)][X32]G[Phg]-NMe2) was run?
The Ki was 1 to 100 nM.

With `CN(C)C(=O)[C@@H](NC(=O)CNC(=O)C(=O)C(CC1CCC1)NC(=O)[C@@H]1[C@@H]2[C@H](CN1C(=O)[C@@H](NC(=O)OC(C)(C)C)C1(C)CCCCC1)C2(C)C)c1ccccc1` (stereo partly drawn) (Boc-[Gly(1-Me-cHex)][Pro(3R,4S-CMe2)][X32]G[Phg]-NMe2) as the molecule, how does the Ki read?
The Ki was 1 to 100 nM.

With `CN(C)C(=O)[C@@H](NC(=O)CNC(=O)C(=O)C(CCC(F)(F)F)NC(=O)[C@@H]1[C@@H]2[C@H](CN1C(=O)[C@@H](NC(=O)OC(C)(C)C)C1Cc3ccccc3C1)C2(C)C)c1ccccc1` (stereo partly drawn) (Boc-[Igl][Pro(3R,4S-CMe2)][X54]G[Phg]-NMe2) as the molecule, how does the Ki read?
The Ki was 1 to 100 nM.

With `CN(C)C(=O)C(NC(=O)CNC(=O)C(=O)C(CC(C)(F)F)NC(=O)[C@@H]1[C@@H]2[C@H](CN1C(=O)[C@@H](NC(=O)OC(C)(C)C)C(C)(C)C)C2(C)C)c1ccccc1` (stereo partly drawn) (Boc-[Tle][Pro(3R,4S-CMe2)][X23]G[ξPhg]-NMe2) as the molecule, how does the Ki read?
The Ki was 101 to 1000 nM.

`CN(C)C(=O)[C@@H](NC(=O)CNC(=O)C(=O)C(CCCC(F)(F)F)NC(=O)[C@@H]1[C@@H]2[C@H](CN1C(=O)[C@@H](NC(=O)OC(C)(C)C)C(C)(C)C)C2(C)C)c1ccccc1` (stereo partly drawn) (Boc-[Tle][Pro(3R,4S-CMe2)][X50]G[Phg]-NMe2) was tested. Which Ki did it give?
The Ki was 1 to 100 nM.

Which Ki does the source give for `CN(C)C(=O)[C@@H](NC(=O)CNC(=O)C(=O)C(CCC(F)(F)F)NC(=O)[C@@H]1[C@@H]2[C@H](CN1C(=O)[C@@H](NC(=O)OC(C)(C)C)C(C)(C)C)C2(C)C)c1ccccc1` (stereo partly drawn) (Boc-[Tle][Pro(3R,4S-CMe2)][X54]G[Phg]-NMe2) here?
The Ki was 1 to 100 nM.

With `CN(C)C(=O)C(NC(=O)CNC(=O)C(=O)C(CC1CC1(F)F)NC(=O)[C@@H]1[C@@H]2[C@H](CN1C(=O)[C@@H](NC(=O)OC(C)(C)C)C(C)(C)C)C2(C)C)c1ccccc1` (stereo partly drawn) (Boc-[Tle][Pro(3R,4S-CMe2)][X67]G[ξPhg]-NMe2) as the molecule, how does the Ki read?
Its Ki is 1 to 100 nM.

How did the Ki turn out when `CN(C)C(=O)[C@@H](NC(=O)CNC(=O)C(=O)C(CCC(F)F)NC(=O)[C@@H]1[C@@H]2[C@H](CN1C(=O)[C@@H](NC(=O)OC(C)(C)C)C(C)(C)C)C2(C)C)c1ccccc1` (stereo partly drawn) (Boc-[Tle][Pro(3R,4S-CMe2)][X81]G[Phg]-NMe2) was run?
Its Ki is 1 to 100 nM.

Which Ki does the source give for `CN(C)C(=O)[C@@H](NC(=O)CNC(=O)C(=O)C(NC(=O)[C@@H]1[C@@H]2[C@H](CN1C(=O)[C@@H](NC(=O)OC(C)(C)C)C(C)(C)C)C2(C)C)C1CCCC1)c1ccccc1` (stereo partly drawn) (Boc-[Tle][Pro(3R,4S-CMe2)][X89]G[Phg]-NMe2) here?
The Ki was 1 to 100 nM.

*1 amine or outer side, *2 acyl side, *3 side chain or, on linkers, in order; H or OH if unused. Where a SMILES comes first, the peptide text is derived from it. [ ]: non-standard residue; d: D form. The star is where a group is joined. ξ: configuration not given here. Pro(3R,4S-CMe2) = CC1(C)[C@@H]2[C@@H](C(=O)O)NC[C@@H]21; Pro(3S,4R-CCl2) = O=C(O)[C@H]1NC[C@H]2[C@@H]1C2(Cl)Cl; Pro(3S,4R-CMe2) = CC1(C)[C@H]2[C@@H](C(=O)O)NC[C@H]21; Pro(3S,4R-(CH2)3) = O=C(O)[C@H]1NC[C@@H]2CCC[C@@H]21; Gly(1-Me-cHex) = CC1([C@H](N)C(=O)O)CCCCC1; X50 = O=C(C(=O)[*:2])C(CCCC(F)(F)F)N[*:1]; X54 = O=C(C(=O)[*:2])C(CCC(F)(F)F)N[*:1]; X67 = O=C(C(=O)[*:2])C(CC1CC1(F)F)N[*:1]; X96 = CCC(F)(F)CC(N[*:1])C(=O)C(=O)[*:2]; X23 = CC(F)(F)CC(N[*:1])C(=O)C(=O)[*:2]; Gly(3-thienyl) = N[C@H](C(=O)O)c1ccsc1; X32 = O=C(C(=O)[*:2])C(CC1CCC1)N[*:1]; X81 = O=C(C(=O)[*:2])C(CCC(F)F)N[*:1]; X84 = O=C(C(=O)[*:2])C(CC1COC1)N[*:1]; X89 = O=C(C(=O)[*:2])C(N[*:1])C1CCCC1; X8 = O=C(C(=O)[*:2])C(CC1CC1)N[*:1]; Igl = N[C@H](C(=O)O)C1Cc2ccccc2C1; X4 = CCCCC(N[*:1])C(=O)C(=O)[*:2]; Chg = N[C@H](C(=O)O)C1CCCCC1; Phg = N[C@H](C(=O)O)c1ccccc1; Tle = CC(C)(C)[C@H](N)C(=O)O; X35 = O=C(CN[*:1])C(=O)[*:2]; ξPhg = NC(C(=O)O)c1ccccc1; Boc = CC(C)(C)OC(=O)*
